These results are taken from paper PMC12040169 (PLOS Biology, 2025).

The list shows a part of the results.

In this experiment the test system is T1, C. trachomatis L2/434/Bu expressing GFP (CTL2-GFP).
T1 construct: L2/434/Bu GFP intracellular growth in HeLa cells
On the set-up: species or system HeLa; C. trachomatis total inclusion area by high-content imaging, normalised to DMSO. To be noted: total inclusion area; 28.5 h, 10 µM; inhibitor. A digest of the protocol: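 Imaging read-out: GFP inclusions and Hoechst nuclei captured by high-content imaging after fixation. Inclusion area/number = chlamydial growth; nuclei count = host cell viability. MIC calculated per earlier method.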
As to `CCOC(=O)N1CCC(NS(=O)(=O)c2cc(Cl)sc2Cl)CC1` [CBK045462], the “% of control remaining” value is recorded as 108.338.
For `O=C(c1ccco1)N1CCN(c2ccc(-c3ccc(F)c(Cl)c3)cn2)CC1` [CBK037683], the “% of control remaining” value is reported as 87.1259.
For `Oc1ccccc1Nc1nc(NC2CCCC2)c2ccccc2n1` [CBK268402C], the “% of control remaining” value came to 36.8575.
In the case of `Cc1c(CN2CCC(N(C)CCN(C)C)CC2)oc2ccccc12` [CBK282038], the “% of control remaining” value turned out to be 86.4253.
With `NS(=O)(=O)c1ccc(NC(=O)CCSc2ccc(Cl)cc2)cc1` [CBK269322], the “% of control remaining” value is recorded as 104.018.
In the case of `CC(Oc1ccccc1Br)c1nc(-c2nonc2N)no1` (centres unmarked) [CBK026982], the “% of control remaining” value is recorded as 71.0807.
As for `CNc1nc2c(ncn2C2CC(O)C(CO)O2)c(=O)[nH]1` (centres unmarked) [CBK201312], the “% of control remaining” value amounted to 135.47.
In the case of `O=c1[nH]c2ncc(-c3ccoc3)nc2n1Cc1ccco1` [CBK064639], the “% of control remaining” value is recorded as 115.254.
Under `CC1(C)CCCN(Cc2nnnn2-c2ccc(S(C)(=O)=O)cc2)CC1` [CBK306177] stands 52.871.
For the molecule `Cc1nc(C2CCCN(C(=O)c3ccnn3C)C2)c2sccn12` (centres unmarked) [CBK285235], the “% of control remaining” value stood at 91.0214.
In the case of `CC(=O)Nc1ccc(SC(C)c2nsc(NS(=O)(=O)c3ccc(-c4ccccc4)cc3)n2)cc1` (centres unmarked) [CBK047508], the “% of control remaining” value is reported as 72.8516.
As for `CSc1ccc(CN2CCN(S(=O)(=O)Cc3ccccc3)CC2)cc1` [CBK264301G], the “% of control remaining” value amounted to 66.3617.
Consider `CC(C)(C)c1cc2cc(NC(=O)C3CC3)ccc2[nH]1` [CBK019994], for which the “% of control remaining” value is recorded as 68.9151.
Take `O=C(Nc1cccc(Cl)c1)N[C@H]1C[C@H]2C(=O)NC[C@@H](CCC(=O)N3CCCC3)N2C1` [CBK289003]: the “% of control remaining” value is on record as 105.414.
With `Cc1cc(NC(=O)c2ccc3c(c2)OCCO3)c2ccccc2n1` [CBK122739], the “% of control remaining” value came out at 93.5317.
As for `Cc1ccc(-c2nnc3sc(-c4cnccn4)nn23)cc1` [CBK268258], the “% of control remaining” value was determined as 101.948.
As to `CN(C)C(=O)c1ccc(-c2ccc(COC3CCN(C(=O)c4cc5ccccc5o4)CC3)c(S(C)(=O)=O)c2)cc1` [CBK155965], the “% of control remaining” value is on record as 64.9588.
As to `COc1ccccc1CNCCc1ccc(S(N)(=O)=O)cc1` [CBK269852C], the “% of control remaining” value is reported as 99.6822.
Consider `O=C(O)C(O)C(O)c1nc2ccccc2[nH]1` (centres unmarked) [CBK260955], for which the “% of control remaining” value stood at 75.7086.
Consider `O=C(NCC1CCCCC1)C1(Cc2ccc(-c3cccnc3)cc2)CCOCC1` [CBK285591], for which the “% of control remaining” value is reported as 94.0155.
On to `CCc1nnc(NS(=O)(=O)c2ccc(NC(=O)COc3ccc(Cl)cc3Cl)cc2)s1` [CBK200050], for which the “% of control remaining” value worked out at 40.2939.
As for `O=C(CCn1c(C(F)(F)F)cc2cccnc21)NC1CCCOC1` (centres unmarked) [CBK284867], the “% of control remaining” value was found to be 63.2376.
With `CN(C)C(=O)Cn1nc(-c2cc3c(s2)CCC3)oc1=O` [CBK284715], the “% of control remaining” value is reported as 77.8182.
`O=C(CC1C(=O)NCCN1C(=S)Nc1ccccc1)Nc1ccc2c(c1)OCCO2` (centres unmarked) [CBK267999]: the “% of control remaining” value was 75.455.
For the molecule `COc1ccc(-n2c(=O)[nH]c3ncc(-c4ccco4)nc32)c(C)c1` [CBK065019], the “% of control remaining” value is 85.2889.
As to `CN(c1ncccc1C#N)C1CCN(C(=O)OCc2ccccc2)CC1` [CBK023869C], the “% of control remaining” value worked out at 99.7396.
Under `Cc1nc(S(=O)(=O)Cc2c(F)cccc2Cl)n(CC2CCCO2)c1C` (centres unmarked) [CBK304706] stands 35.2537.
Consider `CS(=O)(=O)N[C@H]1CO[C@H]2[C@@H]1OC[C@@H]2Nc1nccc(-c2cccs2)n1` [CBK289519], for which the “% of control remaining” value was found to be 97.8351.
With `CC(C)(C)c1cc(CCC(=O)N/N=C/c2ccco2)cc(C(C)(C)C)c1O` [CBK261960], the “% of control remaining” value is reported as 106.018.
For `Cn1c(Cc2ccccc2)nnc1SCC(=O)Nc1ccc(N2CCOCC2)cc1` [CBK269750], the “% of control remaining” value is 91.431.
In the case of `COc1ccc(C(C)c2cc3c(cc2O)OCO3)c(F)c1` (centres unmarked) [CBK200101], the “% of control remaining” value turned out to be 84.5047.
On to `Cc1nc(SCCO)c2c(=O)n(C)c(=O)n(CC(C)C)c2n1` [CBK306114], for which the “% of control remaining” value was found to be 45.9468.
As for `O=c1nc2n(Cc3ccccc3)c3ccccc3cc-2c(=O)[nH]1` [CBK287958], the “% of control remaining” value is given as 96.7062.
With `Cc1c(C(=O)O)sc2ncn(CCCOc3ccc(Cl)cc3)c(=O)c12` [CBK286695], the “% of control remaining” value turned out to be 71.7869.
Consider `CCOC(=O)c1cccc(NS(=O)(=O)c2cccc3cccnc23)c1` [CBK034345], for which the “% of control remaining” value was 72.1504.
Regarding `O=C(O)C1Nc2c(C(=O)N3CCOCC3)cccc2C2C=CCC12` (centres unmarked) [CBK275006], the “% of control remaining” value stood at 58.5701.
As to `COc1ccc(C(NC(=O)[C@H]2CCCN2C(=O)Cc2cccs2)c2ccccc2C)cn1` (some centres unmarked) [CBK075053], the “% of control remaining” value was 129.248.
`O=C(CSc1ncn(-c2ccccc2)n1)Nc1c(Cl)cccc1Cl` [CBK269683]: the “% of control remaining” value is recorded as 69.3461.
In the case of `CCCC(=O)Nc1ccc(C(=O)N2CCN(CC)CC2)cc1` [CBK304218], the “% of control remaining” value was found to be 65.119.
Take `CCC(Oc1ccc(C)cc1)C(=O)Nc1ccc(S(N)(=O)=O)cc1` (centres unmarked) [CBK270036]: the “% of control remaining” value is on record as 99.1698.
In the case of `Cc1onc(-c2ccccc2)c1CNC(=O)c1cccc(C(F)(F)F)c1` [CBK144079], the “% of control remaining” value stood at 102.939.
Under `NC(CC(=O)O)c1ccc(F)c(Oc2ccccc2)c1` (centres unmarked) [CBK286912] stands 85.7137; under `CCn1c(CN2CCCC2c2nc(N(C)C)ncc2-c2ccc(F)cc2)nc2ccccc21` (centres unmarked) [CBK285974], 86.8996.
Then `CCc1nn(CC(=O)N2CCCCCC2)c(=O)c2cc3occc3n12` [CBK283677], with 97.6326; and `Cc1cccc(C)c1NC(=O)c1c(NC(=O)c2ccco2)sc2c1CCC(C)C2` (centres unmarked) [CBK265550], with 90.7251; and `Cc1ccc(/C=N/N=C2/N=C(O)C(CC(=O)Nc3ccccc3C(F)(F)F)S2)o1` (centres unmarked) [CBK263731], with 93.8547.
Turning to `O=C(NC(C(=O)O)C12CC3CC(CC(C3)C1)C2)c1ccc([N+](=O)[O-])cc1` (centres unmarked) [CBK261405], the “% of control remaining” value stood at 99.809.
Turning to `COCCCNC(=O)C1CCCN(c2nc3c(-c4ccc(C)cc4)csc3c(=O)[nH]2)C1` (centres unmarked) [CBK215548], the “% of control remaining” value worked out at 118.056.
As to `O=C(Nc1cccc(-c2nc3ncccc3o2)c1)c1cccc(OCc2ccccc2)c1` [CBK263126], the “% of control remaining” value is 95.5092.
Take `Cc1cccnc1NC(=O)C(C)n1cc([N+](=O)[O-])cn1` (centres unmarked) [CBK268918]: the “% of control remaining” value came out at 75.4847.
